Source: the supplement of paper PMC4466236
The full ranking holds about 33,000 sequences; the median of “E-score (dimensionless, -0.5 to 0.5)” is about -0.058, and the highest 2% start at about 0.35. The list shows a part of the results.

test system: MvaT; test: PBM 8-mer E-score (mean of HK and ME arrays) (E-score (dimensionless, -0.5 to 0.5)); higher = stronger relative binding preference; most listed sequences are background and not binding sites
How it was run: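 Reported values are rank-based E-scores, taken as the mean of two universal arrays and parsed with a custom script. Each 8-mer score falls between -0.5 and 0.5. The arrays, ME and HK, were double-stranded 60-mers with a constant 25-mer primer region and a variable 35-mer region covering all 8-mers. They were probed, by an earlier protocol, with full-length P. aeruginosa MvaT carrying an N-terminal glutathione S-transferase fusion.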

| Sequence | PBM 8-mer E-score |
| --- | --- |
| CGCCCATA | -0.0952 |
| TAGTCAGA | -0.0711 |
| GCCGTGTA | -0.0278 |
| GTCTGAGA | -0.139 |
| GACTTCCA | -0.0343 |
| CATCTCAA | -0.0274 |
| CTCGAAGA | -0.164 |
| ATCTAGAC | 0.00671 |
| TGACCGCA | -0.174 |
| CAGAATAC | 0.0288 |
| AAATCTCA | 0.0206 |
| AATGTAAC | 0.267 |
| CCCCGCAC | -0.305 |
| AGGGTCAC | -0.138 |
| CCAATCCG | -0.164 |
| GAGGGTTA | -0.201 |
| TAAATGTA | 0.359 |
| AGCAAATC | -0.047 |
| GGAGAGGA | -0.311 |
| AAAAAGTT | 0.357 |
| GGACATCA | -0.143 |
| AGATGTTA | 0.303 |

| Sequence | PBM 8-mer E-score |
| --- | --- |
| TGAATTCA | 0.141 |
| CCACGTCA | -0.0822 |
| GATCGTGA | -0.153 |
| CAGATACG | -0.176 |
| AAACGCCT | -0.177 |
| AGATATGA | 0.0699 |
| CGCTCAGC | -0.192 |
| GAAATGTA | 0.259 |
| CGTCTGCA | -0.193 |
| CGAGTGAA | -0.139 |
| CCAAGGTA | -0.18 |
| GGCAGGTA | -0.17 |
| ATATTAGA | 0.407 |
| GTGTTAAA | 0.177 |
| CCATGCCG | -0.105 |
| AAAGACTC | 0.0128 |
| AGAAACGC | -0.00638 |
| ATGTCCGG | -0.0529 |
| ACCGGCTA | -0.232 |
| GGAAGCGA | -0.201 |
| GCTTGACC | -0.22 |
| AAGGATAA | 0.282 |

| Sequence | PBM 8-mer E-score |
| --- | --- |
| AAAGGAGA | -0.198 |
| GTCTTCAC | 0.00606 |
| GGGGCCTA | -0.367 |
| CTATCAAG | -0.0772 |
| GTAGTAAA | 0.154 |
| ACAACTAC | 0.297 |
| ATCCGCAG | -0.144 |
| CGCTATAG | -0.0902 |
| GCACGTAA | 0.0142 |
| GTCTTCCA | 0.0231 |
| ACATAATG | 0.302 |
| ATAATTAC | 0.378 |
| ACGATAAT | 0.287 |
| CTGCGAAC | 0.0125 |
| AAGGACAG | -0.0705 |
| GTTAGGTA | 0.0901 |
| ATATCGTA | 0.207 |
| ACAGGAGG | -0.164 |
| GCGACGGA | -0.0994 |
| ATAGAGCC | -0.0815 |
| AGATATAC | 0.155 |
| AATGGAGG | -0.186 |

| Sequence | PBM 8-mer E-score |
| --- | --- |
| CGATATTC | 0.202 |
| AATACATG | 0.224 |
| ACCTCTAA | 0.000331 |
| AGGCTGGG | -0.266 |
| ACGACCAG | -0.219 |
| TGTATTAA | 0.39 |
| AGCATTAA | 0.208 |
| CTGTGGTC | -0.194 |
| CTATCAGA | -0.115 |
| ACGCGCGC | -0.0641 |
| AAACCCCA | -0.173 |
| TCGAACCA | -0.00703 |
| CGTCGTCA | -0.0726 |
| GAATCATC | -0.112 |
| CATCTGAA | -0.00389 |
| AGTCAGGC | -0.173 |
| GCAAGAGA | -0.144 |
| GGCGGTTA | -0.177 |
| GCTCGTAC | -0.0924 |
| ACCGATTC | -0.156 |
